# The other results are listed elsewhere or left out. Most values come without repeats; read them as rough.
# Test system: MEL-HO
# Experiment: cell count relative to DMSO control; melanoma cells; higher = more viable cells
# Conditions: library dose: standard library concentration; 72 h
# 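Further: cells treated in 1,536-well plates, then fixed and DAPI-stained, with nuclei counted from automated high-throughput microscope images.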
row,Compound,cell count [%]
1,"COCC[n+]1c2c(n(Cc3cnccn3)c1C)C(=O)c1ccccc1C2=O + COc1ccc2c(c1)CCC1C2CCC2(C)C(NCCCCCCN3C(=O)C=CC3=O)CCC12 [U73122] (first compound 0.002 µM, partner dose 2 µM)",113
2,"C#Cc1cccc(Nc2ncnc3cc(OCCOC)c(OCCOC)cc23)c1 [erlotinib] + COCC[n+]1c2c(n(Cc3cnccn3)c1C)C(=O)c1ccccc1C2=O [YM155] (first compound 4 µM, partner dose 0.002 µM)",51.8
3,"Clc1ccc(Nc2nnc(Cc3ccncc3)c3ccccc23)cc1 [vatalanib] + CCc1ccc(CCOc2ccc(CC3SC(=O)NC3=O)cc2)nc1 [pioglitazone] (first compound 10 µM, partner dose 10 µM)",57.5
4,"C#Cc1cccc(Nc2ncnc3cc(OCCOC)c(OCCOC)cc23)c1 [erlotinib] + CO[C@@H]1[C@H](N(C)C(=O)c2ccccc2)C[C@H]2O[C@]1(C)n1c3ccccc3c3c4c(c5c6ccccc6n2c5c31)C(=O)NC4 [Midostaurin] (first compound 4 µM, partner dose 0.4 µM)",65.4

# Test system: MZ2-MEL
# Experiment: as above
# Conditions: library dose: standard library concentration; 72 h
row,Compound,cell count [%]
1,"COCC[n+]1c2c(n(Cc3cnccn3)c1C)C(=O)c1ccccc1C2=O + CCc1ccc(CCOc2ccc(CC3SC(=O)NC3=O)cc2)nc1 [pioglitazone] (first compound 0.002 µM, partner dose 10 µM)",30.1
2,"Clc1ccc(Nc2nnc(Cc3ccncc3)c3ccccc23)cc1 [vatalanib] + Oc1cc(-c2nc(-c3ccccc3)[nH]c2-c2ccncc2)ccc1Cl [L779450] (first compound 10 µM, partner dose 1 µM)",72
3,"Clc1ccc(Nc2nnc(Cc3ccncc3)c3ccccc23)cc1 [vatalanib] + Cn1cc(/C=C2\C(=O)Nc3cccnc32)c2ccccc21 [GW441756] (first compound 10 µM, partner dose 2 µM)",64
4,"Nc1cccc2c1CN(C1CCC(=O)NC1=O)C2=O (stereo not drawn) [lenalidomide] + O=S(=O)(c1ccccc1)N(CC(F)(F)F)c1ccc(C(O)(C(F)(F)F)C(F)(F)F)cc1 [T0901317] (first compound 5 µM, partner dose 7 µM)",103
5,"Nc1cccc2c1CN(C1CCC(=O)NC1=O)C2=O (stereo not drawn) [lenalidomide] + CN(C)S(=O)(=O)c1ccc2c(c1)/C(=C/c1cc3c([nH]1)CCCC3)C(=O)N2 [SU6656] (first compound 5 µM, partner dose 2 µM)",95.4
6,"C#Cc1cccc(Nc2ncnc3cc(OCCOC)c(OCCOC)cc23)c1 [erlotinib] + COc1cc(Nc2ncc(F)c(Nc3ccc4c(n3)NC(=O)C(C)(C)O4)n2)cc(OC)c1OC [Tamatinib] (first compound 4 µM, partner dose 2 µM)",68.4
7,"Nc1cccc2c1CN(C1CCC(=O)NC1=O)C2=O (stereo not drawn) [lenalidomide] + CC(C)(C)c1cnc(CSc2cnc(NC(=O)C3CCNCC3)s2)o1 [SNS-032] (first compound 5 µM, partner dose 0.05 µM)",104
8,"O=C(CCCCCCC(=O)Nc1ccccc1)NO [vorinostat] + CC(C)(C)c1cnc(CSc2cnc(NC(=O)C3CCNCC3)s2)o1 [SNS-032] (first compound 0.4 µM, partner dose 0.05 µM)",112
9,"Clc1ccc(Nc2nnc(Cc3ccncc3)c3ccccc23)cc1 [vatalanib] + O=C(Nc1ccccc1)c1cc([N+](=O)[O-])ccc1Cl [GW9662] (first compound 10 µM, partner dose 10 µM)",50.9
10,"COCC[n+]1c2c(n(Cc3cnccn3)c1C)C(=O)c1ccccc1C2=O + COc1cc(N2CCC(N3CCN(C)CC3)CC2)ccc1Nc1ncc(Cl)c(Nc2ccccc2S(=O)(=O)C(C)C)n1 [NVP-TAE684] (first compound 0.002 µM, partner dose 0.4 µM)",21.6
11,"O=C(CCCCCCC(=O)Nc1ccccc1)NO [vorinostat] + COc1ccc(-c2ccc3c(N4CCOCC4)nc(N4C[C@@H](C)O[C@@H](C)C4)nc3n2)cc1CO [KU0063794] (first compound 0.4 µM, partner dose 0.1 µM)",69.6
12,"Cn1c(Nc2ccc(C(F)(F)F)cc2)nc2cc(Oc3ccnc(-c4ncc(C(F)(F)F)[nH]4)c3)ccc21 + CN(C)S(=O)(=O)c1ccc2c(c1)/C(=C/c1cc3c([nH]1)CCCC3)C(=O)N2 [SU6656] (first compound 0.4 µM, partner dose 2 µM)",30.5
13,"Clc1ccc(Nc2nnc(Cc3ccncc3)c3ccccc23)cc1 [vatalanib] + OCCn1cc(-c2cnc3nnn(Cc4ccc5ncccc5c4)c3n2)cn1 [PF04217903] (first compound 10 µM, partner dose 5 µM)",86.3
14,"Nc1cccc2c1CN(C1CCC(=O)NC1=O)C2=O (stereo not drawn) [lenalidomide] + COc1ccc2c(c1)CCC1C2CCC2(C)C(NCCCCCCN3C(=O)C=CC3=O)CCC12 [U73122] (first compound 5 µM, partner dose 2 µM)",106
15,"Cn1c(Nc2ccc(C(F)(F)F)cc2)nc2cc(Oc3ccnc(-c4ncc(C(F)(F)F)[nH]4)c3)ccc21 + COc1cc(N2CCC(N3CCN(C)CC3)CC2)ccc1Nc1ncc(Cl)c(Nc2ccccc2S(=O)(=O)C(C)C)n1 [NVP-TAE684] (first compound 0.4 µM, partner dose 0.4 µM)",51.5
16,"C#Cc1cccc(Nc2ncnc3cc(OCCOC)c(OCCOC)cc23)c1 [erlotinib] + COc1cc2ncnc(Nc3ccc(Oc4ccccc4)cc3)c2cc1OC [SrcI1] (first compound 4 µM, partner dose 10 µM)",45.5
17,"C#Cc1cccc(Nc2ncnc3cc(OCCOC)c(OCCOC)cc23)c1 [erlotinib] + Cc1cc([N+](=O)[O-])ccc1NS(=O)(=O)c1cc(Cl)ccc1Cl [FH535] (first compound 4 µM, partner dose 5 µM)",53.8
18,"OCc1c[nH]c2ccccc12 [Indole-3-carbinol] + C#Cc1cccc(Nc2ncnc3cc(OCCOC)c(OCCOC)cc23)c1 [erlotinib] (first compound 4 µM, partner dose 4 µM)",67.9
19,"Clc1ccc(Nc2nnc(Cc3ccncc3)c3ccccc23)cc1 [vatalanib] + O=C(O)c1ccc(-c2c[nH]c3ncc(-c4ccccc4)cc23)cc1C1CCCC1 [GSK650394] (first compound 10 µM, partner dose 0.8 µM)",79.6
20,"Cn1c(Nc2ccc(C(F)(F)F)cc2)nc2cc(Oc3ccnc(-c4ncc(C(F)(F)F)[nH]4)c3)ccc21 + CO[C@@H]1[C@H](N(C)C(=O)c2ccccc2)C[C@H]2O[C@]1(C)n1c3ccccc3c3c4c(c5c6ccccc6n2c5c31)C(=O)NC4 [Midostaurin] (first compound 0.4 µM, partner dose 0.4 µM)",45.6
21,"Clc1ccc(Nc2nnc(Cc3ccncc3)c3ccccc23)cc1 [vatalanib] + COCC[n+]1c2c(n(Cc3cnccn3)c1C)C(=O)c1ccccc1C2=O [YM155] (first compound 10 µM, partner dose 0.002 µM)",50.3
22,"Cn1c(Nc2ccc(C(F)(F)F)cc2)nc2cc(Oc3ccnc(-c4ncc(C(F)(F)F)[nH]4)c3)ccc21 + O=C(O)C(=O)Nc1sc2c(c1C(=O)O)CCNC2 [TCS401] (first compound 0.4 µM, partner dose 8.33333 µM)",70.9
23,"O=C(CCCCCCC(=O)Nc1ccccc1)NO [vorinostat] + COc1cc(Nc2ncc(F)c(Nc3ccc4c(n3)NC(=O)C(C)(C)O4)n2)cc(OC)c1OC [Tamatinib] (first compound 0.4 µM, partner dose 2 µM)",73.2
24,"O=C(CCCCCCC(=O)Nc1ccccc1)NO [vorinostat] + N#Cc1c(O)c2c(-c3ccc(-c4ccccc4O)cc3)csc2[nH]c1=O [A769662] (first compound 0.4 µM, partner dose 10 µM)",90.4
25,"Nc1cccc2c1CN(C1CCC(=O)NC1=O)C2=O (stereo not drawn) [lenalidomide] + Cn1cc(/C=C2\C(=O)Nc3cccnc32)c2ccccc21 [GW441756] (first compound 5 µM, partner dose 2 µM)",84.6
26,"Clc1ccc(Nc2nnc(Cc3ccncc3)c3ccccc23)cc1 [vatalanib] + C=CCn1c(=O)c2cnc(Nc3ccc(N4CCN(C)CC4)cc3)nc2n1-c1cccc(C(C)(C)O)n1 [MK1775] (first compound 10 µM, partner dose 0.1 µM)",81.2
27,"COCC[n+]1c2c(n(Cc3cnccn3)c1C)C(=O)c1ccccc1C2=O + O=c1cc(-c2cccc3c2Sc2ccccc2S3)oc(N2CCOCC2)c1 [KU55933] (first compound 0.002 µM, partner dose 5 µM)",24.3
28,"Cn1c(Nc2ccc(C(F)(F)F)cc2)nc2cc(Oc3ccnc(-c4ncc(C(F)(F)F)[nH]4)c3)ccc21 + O=C(CCCCCCC(=O)Nc1ccccc1)NO [vorinostat] (first compound 0.4 µM, partner dose 0.4 µM)",80.6
29,"COCC[n+]1c2c(n(Cc3cnccn3)c1C)C(=O)c1ccccc1C2=O + COc1cc2ncnc(Nc3ccc(Oc4ccccc4)cc3)c2cc1OC [SrcI1] (first compound 0.002 µM, partner dose 10 µM)",19

# — the supplement of paper PMC4604168 (melanoma cell lines)
